Reference: PubChem BioAssay AID488969 (Vanderbilt High Throughput Screening Facility, 2010)
Whole data set: some 110,000 compounds, median “z-score” near -0.1, cut for the highest 2% near 2. The list shows a part of the results. Activity calls are given as the source filed them.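 How the source made its calls: active means z-score in the third read window above 3 or below -3; inactive means the rest.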

molecular target: Metabotropic glutamate receptor 8 (Rattus norvegicus) (UniProt P70579); assay: rat mGluR8 modulators via GIRK flux, primary screen, cell-based, thallium flux, HTS (AID 488969); conditions: HEK293 rat mGluR8, GIRK (G protein-gated inwardly rectifying potassium channel) thallium flux, FluoZin2; at 10 µM; stronger effect = higher value; submaximal glutamate (EC20) added with thallium
Sequence of UniProt P70579 (P70579 whole entry, looked up): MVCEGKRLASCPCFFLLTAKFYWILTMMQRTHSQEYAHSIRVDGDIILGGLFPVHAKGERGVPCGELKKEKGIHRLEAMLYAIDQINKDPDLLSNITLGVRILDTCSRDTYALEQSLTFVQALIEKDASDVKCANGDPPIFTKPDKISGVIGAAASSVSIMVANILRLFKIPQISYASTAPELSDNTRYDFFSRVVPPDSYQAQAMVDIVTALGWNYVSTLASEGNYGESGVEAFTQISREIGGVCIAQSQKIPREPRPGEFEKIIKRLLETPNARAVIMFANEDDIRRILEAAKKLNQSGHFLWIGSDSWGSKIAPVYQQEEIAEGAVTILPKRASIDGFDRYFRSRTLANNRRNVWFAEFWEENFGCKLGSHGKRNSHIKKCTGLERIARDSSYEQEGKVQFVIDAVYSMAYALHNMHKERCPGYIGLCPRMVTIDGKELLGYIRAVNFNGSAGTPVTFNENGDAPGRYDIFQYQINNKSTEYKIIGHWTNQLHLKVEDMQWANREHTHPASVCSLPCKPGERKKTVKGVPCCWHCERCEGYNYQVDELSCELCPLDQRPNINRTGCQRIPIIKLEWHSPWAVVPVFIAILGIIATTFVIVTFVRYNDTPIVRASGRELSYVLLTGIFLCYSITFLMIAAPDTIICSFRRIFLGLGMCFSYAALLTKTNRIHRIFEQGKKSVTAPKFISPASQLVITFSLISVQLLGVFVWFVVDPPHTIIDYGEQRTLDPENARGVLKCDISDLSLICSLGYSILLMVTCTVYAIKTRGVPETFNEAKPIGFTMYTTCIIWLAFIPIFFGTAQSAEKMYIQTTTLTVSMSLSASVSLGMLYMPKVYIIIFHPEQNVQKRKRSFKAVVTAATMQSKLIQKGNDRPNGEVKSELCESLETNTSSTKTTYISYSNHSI

In order of rising z-score:
1. CCOc1ccccc1Nc1nnc(SCC(=O)Nc2cc(C)on2)s1  -1.24
2. Cc1ccc(C(=O)Oc2ccccc2C(=O)N2CCOCC2)cc1  -1.23
3. CCN(CC)CCn1c(O)c(N=O)c2ccccc21  -1.15
4. CCC(C)OC(=O)C1=C(C)OC23OC(N)=C(C#N)C12C(=O)c1ccccc13 (centres undefined)  -1.09
5. COc1ccc(/C=N\NC(=O)COc2ccc(C(C)(C)C)cc2)cc1Cn1nc(C)cc1C  -0.711
6. O=C(CSc1nnc(-c2ccco2)o1)c1ccccc1  -0.662
7. CCc1ccccc1N(CC(=O)NCc1ccco1)C(=O)c1snc(C(N)=O)c1N  -0.637
8. COc1ccc(C(=O)N2CCC(C(=O)Nc3ccc(OC)c(OC)c3)CC2)cc1  -0.606
9. CCCCn1c(SCC(=O)Nc2cc(C(F)(F)F)ccc2Cl)nnc1C(CC)N(C)C (centres undefined)  -0.584
10. Cc1ccc(OCCN2C(=O)CSC2=O)cc1  -0.582
11. O=C1/C(=C/c2cccnc2)Oc2cc(OS(=O)(=O)c3ccccc3)ccc21  -0.53
12. O=C(O)c1cccc(N2C(=O)c3cccnc3C2=O)c1  -0.48
13. CCn1c(=O)n(CC)c2cc(S(=O)(=O)Nc3ccccc3C)c(C)cc21  -0.475
14. CCc1cccc2c(C#N)cn(CC(=O)NCc3ccco3)c12  -0.475
15. C=CCn1c(CSCc2ccccc2)nnc1SCC(=O)N1CCN(c2ccccc2)CC1  -0.469
16. O=C1CC(c2ccco2)CC(O)=C1C=Nc1cc(Cl)cc(Cl)c1 (centres undefined)  -0.467
17. COc1ccc(-c2cc(C)nc(SCc3cccc(C(=O)O)c3)n2)cc1  -0.452
18. COc1ccc(-c2[nH]c(-c3ccc(C(=O)O)cc3)nc2-c2ccccc2)cc1  -0.435
19. Cc1c(NC(=O)c2nn3c(C(F)(F)F)cc(-c4ccccc4)nc3c2Br)c(=O)n(-c2ccccc2)n1C  -0.429
20. C=CCn1c(CC(=O)Nc2cccc(OC)c2)nnc1SCC(=O)NC1CCCCC1  -0.405
21. CCOc1ccc(N(CC(=O)O)S(=O)(=O)c2cccnc2)cc1  -0.401
22. O=C(Nc1cccc(O)c1)C(Cc1ccccc1)N1C(=O)c2cccc3cccc(c23)C1=O (centres undefined)  -0.359
23. O=C(NC1CCCCC1)C(c1cccnc1)N(CCc1ccccc1)C(=O)Cc1cccs1 (centres undefined)  -0.356
24. Cn1c(=O)oc2cc(S(=O)(=O)N3CCCC(C(=O)NCCN4CCOCC4)C3)ccc21 (centres undefined)  -0.355
25. O=C(O)Cc1ccc(C(=O)c2ccc(Cl)cc2)s1  -0.34
26. O=C(c1ccc(CS(=O)(=O)c2c(Cl)cccc2Cl)o1)N1CCN(c2ccccn2)CC1  -0.338
27. CCN(CC(=O)Nc1cccc(Br)c1)Cc1nc2ccccc2c(=O)[nH]1  -0.321
28. COc1cccc(NC(=O)CN(c2ccc(C)cc2)S(=O)(=O)c2c(C)nn(C)c2C)c1  -0.318
29. COc1ccccc1OCCOC(=O)Nc1ccccc1  -0.301
30. O=C(CN1C(=O)COc2ccccc21)NCCCN1CCN(Cc2ccccc2)CC1  -0.299
31. Cc1nn(C)cc1C(=O)NNC(=S)Nc1ccccc1  -0.277
32. O=C(CSc1nc(-c2ccccc2)cc(=O)[nH]1)Nc1ccccn1  -0.246
33. COC(=O)c1ccccc1NC(=O)CSc1nc(N)cc(N)n1  -0.242
34. CCOC(=O)CN(C(=O)CSc1nnc(C)n1-c1ccccc1)c1ccccc1  -0.223
35. CC(OC(=O)c1ccc(S(=O)(=O)N(C)c2ccccc2)cc1)C(=O)NCCC1=CCCCC1 (centres undefined)  -0.207
36. COc1cc(/C=C(\C#N)c2nc3c(s2)CCCC3)ccc1O  -0.204
37. Cc1ccc(OCC(=O)Nc2cccc(C)n2)c(C)c1  -0.204
38. COc1ccc(/C=N/OCC(=O)Nc2cc(C)on2)cc1OC  -0.185
39. CCOc1cc(Br)c(C(=O)O)cc1OC  -0.185
40. Fc1ccc(-c2nc3c(Cl)cc(C(F)(F)F)cn3c2Cl)cc1  -0.181
41. CCOC(=O)c1c(NC(=O)CN2C(=O)NC(C)(c3ccccc3)C2=O)sc(C)c1C (centres undefined)  -0.178
42. CCc1nc(SCC(N)=O)c2c(=O)n(C)c(=O)n(C)c2n1  -0.178
43. COc1ccc(CCN2C(=O)C3CC(C)=C(C)CC3C2=O)cc1OC (centres undefined)  -0.17
44. CC(=O)n1c2ccccc2c2ccccc21  -0.165
45. COCC(C)n1c(C)cc(C(=O)COC(=O)c2ccc(N3CCCC3=O)cc2)c1C (centres undefined)  -0.164
46. CC1=C([N+](=O)[O-])C(c2ccccc2)C2=C(N1)c1ccccc1C2=O (centres undefined)  -0.15
47. COc1ccc(NC(=O)CSc2cccc3cccnc23)c(OC)c1  -0.146
48. O=C(O)c1ccc(CSc2nnnn2C2CCCCC2)cc1  -0.14
49. O=C1C2C3CCC(C3NCc3ccccc3)C2C(=O)N1Cc1ccccc1 (centres undefined)  -0.138
50. Nc1nc(-c2cccc(Br)c2)cs1  -0.135
51. CCOC(=O)c1c(NC(=O)CN2CCN(c3ccc(Cl)cc3)CC2)sc(C)c1C  -0.132
52. Cc1ccc2cc(S(=O)(=O)NCCC(=O)O)ccc2c1  -0.123
53. O=C(Nc1ccc(N2CCOCC2)c(Cl)c1)c1c(F)c(F)c(F)c(F)c1F  -0.114
54. Cc1ccc(-c2csc(NC(=O)COC(=O)c3cccc(S(=O)(=O)N4CCOCC4)c3)n2)cc1  -0.111
55. CC(=O)c1c(N2CCCCC2)nc(=O)n(-c2ccccc2)c1C  -0.104
56. Cn1c(NC(=O)/C=C/c2ccccc2)cc(=O)n(C)c1=O  -0.0797
57. O=C(CC1C(=O)NCCN1C(=O)Nc1ccccc1)Nc1cccc(C(F)(F)F)c1 (centres undefined)  -0.0748
58. O=C(CCSCCc1ccccn1)Nc1c(F)c(F)c(F)c(F)c1F  -0.0702
59. Cc1ccc(NC(=O)C(C)c2ccc(-c3ccccc3)c(F)c2)cc1 (centres undefined)  -0.0648
60. COc1ccc(C2c3c(oc4ccc(C)cc4c3=O)C(=O)N2c2cc(C)ccn2)cc1OC (centres undefined)  -0.0585
61. CCOc1cc(C(=S)N2CCOCC2)ccc1OS(=O)(=O)c1ccccc1[N+](=O)[O-]  -0.0558
62. CCCc1ccc(OCc2nc(-c3ccc(NC(=O)c4cccs4)cc3)no2)cc1  -0.0525
63. CCc1ccccc1NC(=O)COc1ccc2c(=O)c(Oc3cc(C)ccc3C)coc2c1  -0.0463
64. Cc1ccccc1NC(=O)CSc1nc(N)c2c3c(sc2n1)CSC(C)(C)C3  -0.0425
65. Cc1ccc(NCCc2ccc(C)nc2)cc1  -0.041
66. CCOC(=O)N1CCN(c2nc(C(F)(F)F)nc3c(C)cc(C)cc23)CC1  -0.0403
67. COC(=O)c1cc(OC)c(OC)cc1NC(=O)Nc1ccc(OC)cc1  -0.0386
68. Cn1c(COc2ccc(Cl)cc2)nnc1SCC(=O)NC1CCCCC1  -0.0339
69. Cc1ccc(C(=O)COC(=O)c2cccc(N3C(=O)c4c(C)nc5ccccc5c4C3=O)c2)cc1C  -0.0197
70. Cc1ccnc(NS(=O)(=O)c2ccc(NC(=O)c3ccc(C)o3)cc2)n1  -0.0181
71. O=C(NCc1ccc2c(c1)OCO2)c1cccc([N+](=O)[O-])c1  -0.0173
72. O=C(COC(=O)CCNS(=O)(=O)c1cccc(C(F)(F)F)c1)NC(=O)NC1CCCCC1  -0.0168
73. COc1cc(N)ccc1Cc1ccc(N)cc1OC  -0.0145
74. CC(/C=C/c1cccs1)=C\C(=O)O  0.0251
75. Cc1cc2ccc(C)c(C)c2nc1SCC(=O)c1cccs1  0.0341
76. O=C(O)C1CCC(=O)N(C2CC2)C1c1ccccc1 (centres undefined)  0.0348
77. CN1CCN(c2ccc(S(=O)(=O)Nc3ccccc3)cc2[N+](=O)[O-])CC1  0.0391
78. COC(=O)CCC(=O)Nc1cccc(Br)c1  0.0606
79. CC(O/N=C/c1ccccc1OC(F)F)C(=O)Nc1cccc(S(=O)(=O)N2CCOCC2)c1 (centres undefined)  0.0638
80. COc1ccc(/C=c2\s/c(=C/C(=O)c3ccc(C)cc3)[nH]c2=O)c(OC)c1  0.0664
81. O=c1[nH]cnc2c1sc(=S)n2-c1ccccc1  0.0676
82. COc1ccc(C)cc1S(=O)(=O)N(C)CC(=O)NCc1ccco1  0.0855
83. O=C(CN1C(=O)S/C(=C\C=C\c2ccccc2)C1=O)Nc1cccc(O)c1  0.0952
84. Cc1ccc2c([N+](=O)[O-])c(C)ccc2n1  0.108
85. CCCOc1cccc(/C=N/NC(=O)c2csc(C)c2C)c1  0.113
86. Cc1ccc(C)c(NC(=O)COc2cccc3c2CCN(Cc2ccccc2)C3=O)c1  0.164
87. CC(=O)N1N=C(c2cccc([N+](=O)[O-])c2)OC1(C)CC(=O)Nc1ccccc1 (centres undefined)  0.167
88. CC(NC(=O)Nc1ccccc1)c1ccccc1 (centres undefined)  0.179
89. Cn1c(=O)c2c(nc(CN3CCN(C(=O)c4ccco4)CC3)n2Cc2cccc(Cl)c2)n(C)c1=O  0.227
90. COc1cc(C(=O)OC(C)CN2CCN(C)CC2)cc(OC)c1OC (centres undefined)  0.257
91. Cc1cc(C)c(NC(=O)/C(C#N)=C/c2ccc(OCc3ccc(F)cc3)cc2)c(C)c1  0.258
92. N#CCCN1CCNCC1  0.274
93. CN(C)c1nc(C(=O)NN)nc(N(C)C)n1  0.274
94. Cc1cc(=O)[nH]c(SCc2nc3ccccc3s2)n1  0.284
95. CSc1ccccc1NC(=O)c1cc(C2CC2)on1  0.292
96. CCc1nnc(NC(=O)CSc2ncnc3c2oc2ccccc23)s1  0.321
97. Cc1c(C(=O)OCC(=O)N2CC(=O)Nc3ccccc32)oc2ccc(Br)cc12  0.355
98. CCOC1=NS(=O)(=O)c2ccccc21  0.388
99. CC(C)c1ccc2nc3sc(C(=O)N4CCc5ccccc5C4)c(N)c3cc2c1  0.414
100. CCCn1nnc(NC(=O)c2cc(Br)cc(Br)c2OC)n1  0.464
101. c1ccc(Cc2nnc3sc(-c4ccc5c(c4)OCO5)nn23)cc1  0.681
102. CCOc1ccc(-c2nnc3sc(COc4ccc(Cl)cc4)nn23)cc1  0.775
103. COc1ccc(N2CCc3c(C)nc4c(OC)cc(OC)cc4c32)c(OC)c1  0.775
104. CC1(C)OC(=O)C(=CNCC(=O)NCC(=O)O)C(=O)O1  0.786
105. Cc1ccc(C(=O)CC2(O)C(=O)N(CN3CCOCC3)c3ccccc32)cc1 (centres undefined)  0.833
106. CCCCN(CCCC)CC(O)CN(c1cc([N+](=O)[O-])ccc1OC)S(=O)(=O)c1ccccc1 (centres undefined)  0.91
107. COc1ccccc1-n1cc(-c2ccc(Cl)cc2)[nH]c1=O  1.31
108. COc1ccc(C2C3=C(CC(C)(C)CC3=O)Oc3ncn(Cc4ccccc4)c(=N)c32)cc1 (centres undefined)  2.84

With `Cc1ccc(S(=O)(=O)c2c(C)cc(C)nc2Cl)c(C)c1` the z-score was active: 4.41.
